Results as given in PubChem BioAssay AID292 (DTP/NCI, 2004).
Toxic doses and inconclusive results are not listed. A number of entries come with more than one value. The other results are left out here. An entry can have further records. Values that stand side by side differ for a reason that is not stated; dose, time, organism, isomer or construct need not be as stated for each record.

Tested on: B6C3F1 mice, ip Sarcoma M5076, median survival T/C
Experiment: NCI In Vivo Anticancer Drug Screen. Data for tumor model Sarcoma M5076 (intraperitoneal) in B6C3F1 mice
Details: endpoint: median survival time, higher = longer survival
Description: The antitumor activity of compounds was measured in mice bearing transplantable tumors. Survival or tumor size were measured and the results are expressed as the measurement made in the treated group (T) divided by the measurement made in the vehicle treated control group (C). The tumor model used in this assay is Sarcoma M5076 (intraperitoneal) in B6C3F1 mice

For `COc1cc2c(c3c1c(=O)c1ccccc1n3C)C=CC(C)(C)O2`, the T/C (dose: 21.6 mg/kg/injection, schedule: Q04DX004 (ip), vehicle: saline with Tween-80) was 110 % of control and 151 % of control, the T/C (dose: 36.0 mg/kg/injection, schedule: Q04DX004 (ip), vehicle: saline with Tween-80) was 110 % of control and 159 % of control and the T/C (dose: 60.0 mg/kg/injection, schedule: Q04DX004 (ip), vehicle: saline with Tween-80) was 110 % of control and 165 % of control. For the same compound, the T/C (dose: 100.0 mg/kg/injection, schedule: Q04DX004 (ip), vehicle: saline with Tween-80) was 110 % of control and 164 % of control.

In the case of `CC(C)(C)CCC(Br)CBr` (stereo unspecified), the T/C (dose: 25.0 mg/kg/injection, schedule: Q04DX004 (ip), vehicle: suspension in saline) is reported as 95 % of control and 172 % of control.

`CO[C@@]12[C@H](COC(N)=O)C3=C(C(=O)C(C)=C(N)C3=O)N1C[C@@H]1N[C@@H]12` was tested, and the T/C (dose: 2.0 mg/kg/injection, schedule: Q04DX004 (ip), vehicle: saline) was 93 % of control and 176 % of control and the T/C (dose: 4.0 mg/kg/injection, schedule: Q04DX004 (ip), vehicle: saline) was 86 % of control and 198 % of control.

With `COc1cc2cc(c1Cl)N(C)C(=O)C[C@H](OC(=O)[C@H](C)N(C)C(C)=O)[C@]1(C)O[C@H]1[C@H](C)[C@@H]1C[C@@](O)(NC(=O)O1)[C@H](OC)C=C/C=C(\C)C2` the T/C (dose: 150.0 micrograms/kg/injection, schedule: Q04DX005 (ip), vehicle: saline) was 121 % of control and 159 % of control.

`COC(=O)C12OCC34C(CC5C(C)C6=CC(=O)OC6=CC5(C)C3C(O)C1O)OC(=O)C(O)C24` (stereo unspecified) was tested, and the T/C (dose: 0.25 mg/kg/injection, schedule: Q04DX004 (ip), vehicle: Klucel (hydroxypropylcellulose) (HPC)) was 116 % of control, 119 % of control, 155 % of control.

`CN=NN(C)C(=O)NC` was tested, and the T/C (dose: 139.0 mg/kg/injection, schedule: Q04DX004 (ip), vehicle: saline) was 92 % of control and 183 % of control.

`CCOC(=O)Nc1cc(NC(C)/C(=N/O)c2ccccc2)c([N+](=O)[O-])c(N)n1` (stereo unspecified) was tested, and the T/C (dose: 800.0 mg/kg/injection, schedule: Q04DX004 (ip), vehicle: Klucel (hydroxypropylcellulose) (HPC)) was 119 % of control and 161 % of control.
